According to PubChem BioAssay AID504845 (National Center for Advancing Translational Sciences (NCATS), 2011):
The campaign covered roughly 390,000 compounds. About 150 (0.038%) were called active. This list was built around the results that the source calls inconclusive (neither active nor inactive); the mix of calls is not that of the screen. Calls come from the whole dose curve; as a rule, active = well fitted inhibition curve with a large enough effect; inconclusive = small, poorly fitted or top-dose-only effect; inactive = no such curve, though single readings can be large or run the other way. Potencies of inconclusive entries are doubtful fits and often do not repeat.

What follows are molecules tested against Regulator of G-protein signaling 4 (Homo sapiens) (UniProt P49798) (assay: Inhibitors of Regulator of G Protein Signaling (RGS) 4: qHTS). Details: Transcreener GDP fluorescence polarization, RGS4-accelerated GTP hydrolysis; series mostly up to 114 µM; activity change, negative = inhibition: at the top concentration.
Outline: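 MLSMR compounds (23 nl, pin-transferred) preincubated 10 min at room temperature with a 500nM (2x) first reagent, then RGS4 at 900nM (2x) plus Transcreener GDP mix added; fluorescence polarization (620/688 nm) read before and after 90 min at 30 °C.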
% is set by controls: 0 for no effect and ±100 for the full control effect; potency is the fitted concentration of half-maximal effect; tags give direction and shape of the fitted curve.
Note: nearly all actives have a fitted effect of over 75% in size.

Chain of UniProt P49798 (P49798 whole entry, looked up): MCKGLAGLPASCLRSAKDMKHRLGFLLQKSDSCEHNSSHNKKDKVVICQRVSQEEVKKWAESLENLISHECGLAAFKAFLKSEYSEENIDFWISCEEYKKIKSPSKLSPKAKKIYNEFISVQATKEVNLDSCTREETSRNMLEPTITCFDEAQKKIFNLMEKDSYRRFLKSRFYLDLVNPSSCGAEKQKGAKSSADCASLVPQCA

Structure (SMILES)	Potency	activity change, negative = inhibition
Cc1coc2c1C(=O)C(=O)c1c-2ccc2c1CCCC2(C)C	inconclusive: 1.06 µM [inhibitor, partial curve, poor fit]	–
CC(C)c1ccc(S(=O)(=O)N2CCN(C(=S)NCc3ccco3)CC2)cc1	inconclusive: 17.8 µM [inhibitor, full curve, poor fit]	–
Cc1cc(NC(=O)C23CCC(C)(C(=O)O2)C3(C)C)no1 (stereo not given)	–	inactive: -5.8%
O=C(Nc1ccccc1F)c1ccc([N+](=O)[O-])s1	–	inactive: 2.25%
COc1cccc(OCCSc2nnc3sc4ccccc4n23)c1	–	inactive: 15.3%
Cc1ccc(CCNC(=O)c2cc3c(s2)-c2ccccc2OC3)cc1	inconclusive: 50.1 µM [inhibitor, partial curve, poor fit]	–
CCOn1c(=O)c(-c2cc3ccccc3o2)[n+]([O-])c2ccccc21	–	inactive: -5.6% [at 11.4 µM]
OCC(CO)(CO)N=Cc1c(O)ccc2ccccc12	inconclusive: 17.8 µM [inhibitor, full curve, poor fit]	–
CC(=O)N1CC[n+]2c(-c3ccc([N+](=O)[O-])cc3)csc21	inconclusive: 35.5 µM [inhibitor, partial curve, poor fit]	–
COc1ccc(C[C@@H]2OC3(C=CC(=O)C=C3)O[C@H]2Cc2ccc(OC)cc2)cc1	inconclusive: 39.8 µM [inhibitor, partial curve, poor fit]	–
Cc1cc2n(n1)SC(Nc1cccc3ccccc13)N2 (stereo not given)	inconclusive: 89.1 µM [inhibitor, partial curve, poor fit]	–
O=C(NC1CCCC1)c1ccc2nc(-c3ccco3)c(-c3ccco3)nc2c1	–	inactive: -21.3% [at 11.4 µM]
CCCCCSc1nc2c(c(=O)[nH]c(=O)n2C)n1CC	inconclusive: 10 µM [inhibitor, full curve, poor fit]	–
O=C(NC(=S)Nc1ccccc1N1CCCC1)c1ccc([N+](=O)[O-])cc1	inconclusive: 28.2 µM [inhibitor, full curve, poor fit]	–
COc1ccccc1NC(=O)c1nc(S(=O)(=O)Cc2ccccc2)ncc1Cl	inconclusive: 89.1 µM [inhibitor, partial curve, poor fit]	–
CC1(C(=O)Nc2cccc(C(F)(F)F)c2)Cc2ccccc2C(=O)O1 (stereo not given)	–	inactive: -7.29%
COc1cccc(C2C3(C#N)C(N)=NC(OC)(OC)C23C#N)c1 (stereo not given)	–	inactive: -29.3%
COC(=O)c1ccc(CN2[C@H](C(=O)OC)C[C@@]3(O)[C@H](O)[C@H](O)[C@H](O)C[C@@H]23)cc1	–	inactive: 6.26%
Cc1csc2nc(O)c(C(=O)NCCCc3ccccc3)c(=O)n12	–	inactive: -19%
Cc1cccc(NC(=O)c2cc(-c3cccnc3)nc3c(C)cccc23)n1	inconclusive: 17.8 µM [inhibitor, full curve, poor fit]	–
Cn1c(Sc2ccc(Cl)cc2)c(C=O)c2ccccc21	–	inactive: -3.66%
CCCCn1c(-c2csc3ccccc23)n[nH]c1=S	inconclusive: 100 µM [inhibitor, partial curve, poor fit]	–

Structure (SMILES)	Potency	activity change, negative = inhibition
C=C1C(=O)OC2C=C(CO)C3OC3C3OC3(C)CC(OC(=O)/C(=C/C)COC(C)=O)C12 (stereo not given)	inconclusive: 44.7 µM [inhibitor, partial curve, poor fit]	–
O=C(Nc1cc(C(F)(F)F)ccc1-n1cncn1)c1ccc(Cl)cc1	–	inactive: 5.98%
Cc1ccc(Nc2nc(N)nc(CSC(=S)N3CCOCC3)n2)cc1	–	inactive: -18.3%
O=C(CSc1nnc(-c2ccccn2)n1Cc1ccccc1)N1CCOCC1	–	inactive: -4.52% [at 56.9 µM]
CC(C)(Cc1ccc(O)cc1)NC(=O)CC(=O)N/N=C/c1ccc(Cl)cc1	–	inactive: 10.5%
O=C(CSc1ccc(-c2ccco2)nn1)c1ccc(F)cc1	inconclusive: 31.6 µM [inhibitor, full curve, poor fit]	–
O=C(O)C1CC(=O)N(c2ccc(F)cc2)C1 (stereo not given)	inconclusive: 89.1 µM [inhibitor, partial curve, poor fit]	–
CCc1nnc(NC(=O)c2ccc(S(=O)(=O)N3CCc4ccccc4C3)cc2)s1	inconclusive: 56.2 µM [inhibitor, partial curve, poor fit]	–
Cc1nc2ccc(NC(=O)c3cc([N+](=O)[O-])cc([N+](=O)[O-])c3Cl)cc2s1	inconclusive: 35.5 µM [inhibitor, full curve, poor fit]	–
CC(C(=O)N1CCN(Cc2ccc3c(c2)OCO3)CC1)n1cc([N+](=O)[O-])cn1 (stereo not given)	inconclusive: 89.1 µM [inhibitor, single point]	–
CCOc1cc(/C=C2\SC(=O)N(CC(=O)Nc3ccccc3F)C2=O)cc([N+](=O)[O-])c1O	inconclusive: 28.2 µM [inhibitor, full curve, poor fit]	–
CCOC(=O)C1=C(COC(=O)/C=C/c2ccco2)NC(=O)NC1C (stereo not given)	inconclusive: 17.8 µM [inhibitor, full curve, poor fit]	–
Cc1cccc(C)c1NC(=O)COC(=O)c1ccc([N+](=O)[O-])o1	inconclusive: 100 µM [inhibitor, single point]	–
COc1cc(C(C[N+](=O)[O-])c2c(-c3ccccc3)cc3ccccn23)cc(OC)c1OC (stereo not given)	inconclusive: 89.1 µM [inhibitor, single point]	–
Cc1ccc(S(=O)(=O)N(C)C)cc1NC(=O)c1cc(-c2ccco2)nc2ccccc12	inconclusive: 50.1 µM [inhibitor, partial curve, poor fit]	–
COc1ccc(OC)c(C(=O)CN2C(=O)N(c3cc(C)cc(C)c3)S(=O)(=O)c3ccccc32)c1	–	inactive: 28.1%
O=C1c2ccccc2C(=O)N1c1nc(-c2cccs2)cs1	–	inactive: -23%
COc1ccc2oc(C(=O)OCC(=O)N(C)c3c(N)n(Cc4ccccc4)c(=O)[nH]c3=O)c(C)c2c1	inconclusive: 100 µM [inhibitor, partial curve, poor fit]	–
COc1ccc(/C=C2\C(=O)ON=C2c2ccccc2)cc1OC	inconclusive: 25.1 µM [inhibitor, full curve, poor fit]	–
Cc1ccc(O)c(NC2=C(Cl)C(=O)N(Cc3ccccc3)C2=O)c1	inconclusive: 89.1 µM [inhibitor, partial curve, poor fit]	–
CCCCCOCC1CC(C/C(C)=N/NC(N)=S)C(=O)O1 (stereo not given)	inconclusive: 50.1 µM [inhibitor, partial curve, poor fit]	–
COc1ccccc1/C=C/CN1CCC(Oc2ccc(C(=O)N3CCCCC3)cc2)CC1	–	inactive: -12.7%

Structure (SMILES)	Potency	activity change, negative = inhibition
COc1ccccc1Nc1ncc2c(n1)CCN(CC(C)C)C2	–	inactive: -14.3%
COc1ccc(CCN2CC(O)=C(c3nc(C)cs3)C2=N)cc1OC	–	inactive: 0.438%
Nc1c(C(=O)NCc2ccco2)sc2nc(N3CCOCC3)c3c(c12)CCCC3	inconclusive: 44.7 µM [inhibitor, partial curve, poor fit]	–
O=C(Nc1ccc(Cl)cc1)c1ccc2ncsc2c1	inconclusive: 44.7 µM [inhibitor, partial curve, poor fit]	–
Nc1nnc(-c2cccc([N+](=O)[O-])c2)s1	inconclusive: 50.1 µM [inhibitor, partial curve, poor fit]	–
COC(=O)C1=C(CSc2nc3c(cc2C#N)CN(C)CC3)OC(N)=C(C#N)C1c1ccc(F)cc1 (stereo not given)	inconclusive: 79.4 µM [inhibitor, partial curve, poor fit]	–
O=C(COc1ccc(F)cc1Cl)N1CCN(C(=O)c2cccs2)CC1	inconclusive: 100 µM [inhibitor, single point]	–
O=C1NC(=S)N/C1=C\c1ccc(N2CCOCC2)cc1	inconclusive: 39.8 µM [inhibitor, partial curve, poor fit]	–
O=C(c1ccco1)N1CCN(Cc2cccnc2)CC1	inconclusive: 89.1 µM [inhibitor, single point]	–
COC(=O)c1ccc(C(=O)OC)c(-n2c(=O)c3ccccc3c3ccccc3c2=O)c1	inconclusive: 17.8 µM [inhibitor, full curve, poor fit]	–
O=c1cc(O)n(-c2ccc(F)cc2)c(=S)[nH]1	inconclusive: 70.8 µM [inhibitor, partial curve, poor fit]	–
S=C(Nc1ccc(Cl)cc1)NC1CCN(Cc2ccccc2)CC1	–	inactive: 21.4%
Cc1ccc(OCCSc2nc(-c3cccs3)nc3cc(=O)[nH]n23)cc1Cl	inconclusive: 89.1 µM [inhibitor, single point]	–
CCn1nc(C)c(CN2CCc3c([nH]c4ccccc34)C2C(C)(C)C)c1C (stereo not given)	–	inactive: -1.8%
CC1(C)Cc2c(c(-c3ccco3)nc3sc4c(NCCCO)ncnc4c23)CO1	inconclusive: 31.6 µM [inhibitor, full curve, poor fit]	–
CCOC(=O)c1c(NC(=O)C2CCCO2)sc(C(=O)OC(C)(C)C)c1C (stereo not given)	inconclusive: 79.4 µM [inhibitor, partial curve, poor fit]	–
COc1ccc(Cn2c(=O)c3oc4ccccc4c3n(Cc3ccccc3)c2=O)cc1	–	inactive: 3.43%
Cc1ccc(CS(=O)Cc2ccc(C(=O)NC3CCCC(C)C3C)o2)cc1 (stereo not given)	–	inactive: -14.1%
Cc1nn(CC(=O)Nc2ccc(N(C)C)cc2)c(C)c1[N+](=O)[O-]	inconclusive: 100 µM [inhibitor, single point]	–
S=c1[nH]nc(-c2ccco2)n1/N=C/c1ccc(Cl)c(Cl)c1	inconclusive: 50.1 µM [inhibitor, partial curve, poor fit]	–
CCOC(=O)c1c(NC(=O)COC(=O)CCCOc2ccc(OC)cc2)sc(C(=O)N(C)C)c1C	inconclusive: 89.1 µM [inhibitor, single point]	–
